Test results taken from PubChem BioAssay AID588342 (National Center for Advancing Translational Sciences (NCATS), 2011).
Several values for one entry are separate records, joined by “and”; a condition that tells them apart may be missing. Equal entries are not always repeated. Out of some 360,000 compounds screened, about 25,000 (6.9%) were called active. Inconclusive means that the source gave no clear call. Such entries were picked first, then a sample of the others. Calls come from the whole dose curve; as a rule, active = well fitted inhibition curve with a large enough effect; inconclusive = small, poorly fitted or top-dose-only effect; inactive = flat fitted curve, though single readings scatter. Potencies of inconclusive entries are doubtful fits and often do not repeat.

The compounds below were run against Luciferin 4-monooxygenase (Photinus pyralis) (UniProt P08659) (assay: qHTS profiling assay for firefly luciferase inhibitor/activator using purifed enzyme and Km concentrations of substrates (counterscreen for miR-21 project)). Details: purified FLuc, luminescence inhibition; series mostly up to 57.5 µM; activity change, negative = inhibition: at the top concentration.
Chain of UniProt P08659 (P08659 whole entry, looked up): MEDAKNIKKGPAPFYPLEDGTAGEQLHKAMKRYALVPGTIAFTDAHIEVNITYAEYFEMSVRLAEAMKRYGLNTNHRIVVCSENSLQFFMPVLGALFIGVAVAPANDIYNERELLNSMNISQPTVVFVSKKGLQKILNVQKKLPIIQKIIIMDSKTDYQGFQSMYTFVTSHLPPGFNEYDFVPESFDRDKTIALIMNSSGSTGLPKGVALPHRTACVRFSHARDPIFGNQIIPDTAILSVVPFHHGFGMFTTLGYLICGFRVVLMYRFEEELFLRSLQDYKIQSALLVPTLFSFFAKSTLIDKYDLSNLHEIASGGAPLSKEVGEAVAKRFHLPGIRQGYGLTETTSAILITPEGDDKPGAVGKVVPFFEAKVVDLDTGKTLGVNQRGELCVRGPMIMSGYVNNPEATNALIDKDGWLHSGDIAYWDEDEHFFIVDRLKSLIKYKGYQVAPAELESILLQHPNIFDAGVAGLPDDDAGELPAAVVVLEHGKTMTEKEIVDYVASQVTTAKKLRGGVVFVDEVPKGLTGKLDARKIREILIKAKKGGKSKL
In short: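 Purified P. pyralis luciferase, 10 nM final, with Km-level 10 uM D-luciferin and 10 uM ATP in 50 mM Tris acetate pH 7.5, 10 mM Mg acetate, 0.01% Tween-20, 0.05% BSA; 6-point qHTS titration about 60 µM downward; luminescence read.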
Note: nearly all actives have a fitted effect of over 55% in size.
Potency is the fitted concentration of half-maximal effect; tags give direction and shape of the fitted curve.
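Throughout, for activity change, negative = inhibition: plate controls were vehicle for no effect and reference inhibitor for full effect.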

Compound | Potency | activity change, negative = inhibition
Cc1ccc(-n2[nH]c(C)c(/C=N/c3ccccn3)c2=O)cc1 | inconclusive: 16.9 µM [inhibitor, partial curve] | 
CCN1CCc2c(OCc3ccc(C(=O)OC)o3)cccc2C1=O |  | inactive: -4.24%
O=C(Cc1c[nH]c2ccccc12)NCc1cccs1 | inconclusive: 30.1 µM [inhibitor, partial curve, poor fit] | 
Cc1ccc2nc(-c3cccc(Br)c3)cc(C(=O)NCC3CCCO3)c2c1 (centres undefined) | inconclusive: 3.01 µM [inhibitor, full curve] | 
Cc1ccccc1Cn1ccn(-c2ccc(F)c(F)c2)c(=O)c1=O |  | inactive: -0.841%
O=C(Cc1sc(Nc2ccccc2)nc1-c1ccccc1)NCc1ccccc1 | inconclusive: 37.9 µM [inhibitor, single point] | 
c1ccc(-c2noc(CSc3nc4ccccc4o3)n2)cc1 | inconclusive: 37.9 µM [inhibitor, single point] | 
CCC(/C=C1\Sc2ccc(OC)cc2N1CC)=C\c1sc2ccc(OC)cc2[n+]1CCCS(=O)(=O)[O-] | inconclusive: 15.1 µM [inhibitor, partial curve] | 
O=C(CSc1nc2ccccc2s1)Nc1ccc(Cl)c(S(=O)(=O)N2CCOCC2)c1 | inconclusive: 23.9 µM [inhibitor, single point] | 
Cc1cccc(Cc2nnc(CCC(=O)N(C)C3CCOC3)o2)c1 (centres undefined) | inconclusive: 30.1 µM [inhibitor, partial curve, poor fit] | 
Cc1nn(-c2ccccc2)c(OC(=O)c2ccccc2)c1S(=O)(=O)c1ccccc1 | inconclusive: 8.49 µM [inhibitor, partial curve] | 
COc1c(Cl)cc(C(=O)Nc2cc(-c3nc4ccccc4[nH]3)ccc2C)cc1Cl | inconclusive: 9.53 µM [inhibitor, partial curve] | 
COc1ccc(N=Nc2cc(C)ccc2O)cc1 | active: 0.478 µM | 
CCOC(=O)c1cc(-c2ccc(/C=C3/C(=O)NC(=O)C(C#N)=C3C)o2)ccc1Cl | inconclusive: 23.9 µM [inhibitor, partial curve, poor fit] | 
Clc1ccccc1Nc1nc2ccccc2o1 | active: 1.69 µM | 
O=C(CSc1ccc(-c2ccco2)nn1)Nc1ccc(F)cc1 | inconclusive: 13.5 µM [inhibitor, partial curve, poor fit] | 
C/C(CC(=O)Nc1ccc2c(c1)OCCO2)=N\NC(=O)C(=O)Nc1ccccc1C | inconclusive: 19 µM [inhibitor, single point] | 
COc1ccc2c(=O)c(C(=O)NCCc3ccc(OC)c(OC)c3)c[nH]c2c1 |  | inactive: -7.71%
C#CCOCCOCCOCCNc1nc(N2CCN(C(=O)CCCCCCCCCCNC(=O)[C@H]([C@@H](C)CC)n3cc(CCCCCN)nn3)CC2)nc(N2CCN(C(=O)CCCCCCCCCCNC(=O)[C@H]([C@@H](C)CC)n3cc(CCCCN=C(N)N)nn3)CC2)n1 | inconclusive: 23.9 µM [inhibitor, partial curve, poor fit] | 
COc1cc(Cl)c(C)cc1NC(=O)COC(=O)c1ccc(CN2CCCC2=O)cc1 |  | inactive: 2.08%
O=C(N/N=C/c1ccc(OC2CSC2)cc1)c1ccccc1 | active: 2.39 µM | 
CC(=O)NC(=S)Nc1ccc(-c2nc3ccc(C)cc3s2)cc1 | active: 2.13 µM | 
CC1=Nc2cc(C(=O)O)ccc2Sc2c(C)ccc(C)c21 | inconclusive: 19 µM [inhibitor, partial curve] | 

Compound | Potency | activity change, negative = inhibition
COc1ccc(NCc2nn(CC(=O)c3ccc(Br)cc3)c3[n+]2CCCCC3)cc1 | inconclusive: 23.9 µM [inhibitor, partial curve, poor fit] | 
CCOC(=O)C(CC)(CCC(=O)O)c1csc(Nc2ccc(C)cc2)n1 (centres undefined) | inconclusive: 30.1 µM [inhibitor, partial curve, poor fit] | 
Cn1c(=O)n(CCOc2ccccc2Cl)c2ccccc21 | active: 23.9 µM | 
COC(=O)C1CCN(C(=O)COC(=O)c2n[nH]c3ccccc23)CC1 | inconclusive: 23.9 µM [inhibitor, single point] | 
O=C(CCN=C1NS(=O)(=O)c2ccccc21)OCC(=O)c1ccccc1Cl | inconclusive: 26.9 µM [inhibitor, single point] | 
Cc1noc(NC(=O)c2ccc(Cl)c(Cl)c2)c1Cl | inconclusive: 23.9 µM [inhibitor, partial curve] | 
O=C(/C=C/c1ccccc1)N1CCCN(C(=O)/C=C/c2ccccc2)CC1 | inconclusive: 30.1 µM [inhibitor, single point] | 
Cc1nn(C(C)C(=O)NCc2ccc(OC(C)C)cc2)c(=O)c2c1sc1ccccc12 (centres undefined) | inconclusive: 12 µM [inhibitor, partial curve] | 
Cc1cccc(CCNC(=O)c2cccc(NC3=NC4CS(=O)(=O)CC4S3)c2)c1 (centres undefined) | inconclusive: 23.9 µM [inhibitor, single point] | 
Cc1nc(C)c(C(=O)Nc2ccc(Oc3ccccc3)cc2)o1 | active: 23.9 µM | 
COc1cccc(C2CC(=O)Nc3cc4c(cc32)OCCO4)c1OC(C)C (centres undefined) |  | inactive: 6.49%
CCCn1nnc(NC(=S)NC(=O)c2cccs2)n1 | inconclusive: 37.9 µM [inhibitor, partial curve, poor fit] | 
CCC(=O)N1CCc2cc(S(=O)(=O)NC(Cc3ccccc3)C(=O)NCc3ccccc3)ccc21 (centres undefined) |  | inactive: 5.1%
Cc1ccc(OCC(=O)Nc2ccc(OCc3cc(=O)n4ccsc4n3)cc2)cc1C |  | inactive: 2.86%
CSc1ccccc1C(=O)Nc1ccc2c(c1)CCC2 | active: 15.1 µM | 
CCOc1ccc(C(=O)COC(=O)Cn2cnc3c2c(=O)n(C)c(=O)n3C)cc1 | inconclusive: 26.9 µM [inhibitor, partial curve, poor fit] | 
CCc1cc(=O)oc2c3c(cc(OCC(=O)NCc4ccco4)c12)OC(C)(C)CC3 | inconclusive: 21.3 µM [inhibitor, single point] | 
O=C(CN1CCOc2ccccc21)N1CCCC1 | inconclusive: 30.1 µM [inhibitor, partial curve, poor fit] | 
CC(C)NC(=S)N/N=C/c1ccc(N2CCOCC2)cc1 |  | inactive: -1.92%
CC1CC(C)CN(c2ncnc3c2cnn3Cc2ccc(Cl)cc2)C1 (centres undefined) |  | inactive: -0.388%
CSc1nnc(-c2ccccc2SC)o1 |  | inactive: -7.34%
Nc1nc(-c2ccc3ccccc3c2)cs1 | active: 3.79 µM | 
Cc1ccc(N=c2oc3cc(O)ccc3cc2C(N)=O)cc1 | active: 19 µM | 

Compound | Potency | activity change, negative = inhibition
Cn1c(=O)n(CCOc2ccc(Cl)cc2Cl)c2ccccc21 |  | inactive: -15.8%
Cc1ccc(Cl)cc1-n1ncc2c(NCCc3ccccc3)ncnc21 | inconclusive: 37.9 µM [inhibitor, partial curve, poor fit] | 
CC1(C)CC(=O)C2=C(C1)O[C@@]1(c3ccsc3)Cc3cc(C#N)ccc3C2O1 | inconclusive: 3.89 µM [inhibitor, partial curve, poor fit] | 
CCCNC(=O)c1ccc2c(c1)N=C(CCC)c1ccccc1S2 | inconclusive: 37.9 µM [inhibitor, partial curve, poor fit] | 
Cc1cccc(CSc2cn(CC(=O)N3CCOCC3)c3ccccc23)c1 | active: 12 µM and active: 15.1 µM | 
O=C(Cn1nc2c(cc1=O)CCCC2)NCc1ccc(Cl)cc1 |  | inactive: -5.11%
Cc1nn(Cc2ccccc2)c(Cl)c1C(=O)NCCc1ccccc1 | active: 9.53 µM | 
CCOc1ccc2c(c1)c1nnc(SCC(=O)N3CCC(C)CC3)nc1n2C | inconclusive: 9.53 µM [inhibitor, partial curve] | 
CCN(CC)c1nc(C)nc2c1cnn2CCc1ccccc1 | active: 19 µM | 
Cn1nc(C(F)(F)F)c(/C=N/OC(=O)c2ccc(Cl)cc2)c1Cl | inconclusive: 21.3 µM [inhibitor, single point] | 
Cc1oc2cc(Br)c(O)c(Br)c2c1C(=O)c1ccccc1 | inconclusive: 23.9 µM [inhibitor, partial curve, poor fit] | 
Cc1c(CC(=O)NCC(=O)NCC(=O)O)c(=O)oc2cc3c(cc12)CCC(C)(C)O3 | inconclusive: 21.3 µM [inhibitor, single point] | 
CC1=NN(C(N)=S)C(=O)C1N=Nc1ccc(F)cc1 (centres undefined) | active: 10.7 µM | 
CCOC(=O)c1c(-c2ccccc2)csc1NC(=O)CCN1CCOCC1 |  | inactive: -0.965%
C=CCc1cc(C=O)cc(OCC)c1O | inconclusive: 21.3 µM [inhibitor, partial curve, poor fit] | 
COCCCNC(=O)/C=C/c1ccc(Cl)cc1Cl | inconclusive: 21.3 µM [inhibitor, partial curve] | 
CC(C)COc1ccc(C(=O)Nc2ncn[nH]2)cc1 | inconclusive: 26.9 µM [inhibitor, partial curve, poor fit] | 
O=C(Nc1ccccc1O)c1ccc(NS(=O)(=O)c2cccc3cccnc23)cc1 | inconclusive: 23.9 µM [inhibitor, single point] | 
CN(C)S(=O)(=O)c1ccc(C(=O)Nc2cccc(S(=O)(=O)NC3=NCCC3)c2)cc1 |  | inactive: -18.5%
COc1ccc(/C=C/c2nc(C#N)c(N3CCCCC3)o2)cc1OC | inconclusive: 37.9 µM [inhibitor, partial curve, poor fit] | 
CCOC(=O)CNNC(=O)Nc1ccc(Cl)c(Cl)c1 | inconclusive: 33.8 µM [inhibitor, partial curve, poor fit] | 
Cc1n[nH]c(C)c1C(=O)CC1(O)C(=O)N(CCc2ccccc2)c2ccc(Br)cc21 (centres undefined) | inconclusive: 23.9 µM [inhibitor, partial curve] | 
Cc1ccc2c(=O)cc(C(=O)Nc3c(C)cccc3C)oc2c1 |  | inactive: 0.962%
